This is one part of the list.
T1: UNK ZnF1-6 (called full-length) (human, UniProt Q9C0B0 30-357)
T1 sequence: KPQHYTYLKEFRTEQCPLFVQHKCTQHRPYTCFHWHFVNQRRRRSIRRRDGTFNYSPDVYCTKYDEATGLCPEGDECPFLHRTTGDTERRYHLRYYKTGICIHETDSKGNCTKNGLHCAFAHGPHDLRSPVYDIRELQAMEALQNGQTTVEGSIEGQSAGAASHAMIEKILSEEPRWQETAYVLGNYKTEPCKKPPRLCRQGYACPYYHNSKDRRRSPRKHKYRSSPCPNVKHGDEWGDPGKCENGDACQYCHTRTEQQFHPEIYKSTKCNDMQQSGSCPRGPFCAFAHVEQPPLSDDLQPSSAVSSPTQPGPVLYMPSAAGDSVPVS

B1: ENSG00000173068:stop:overlap|stop_codon|ENSG00000173068|stop_codon|NA|stop_codon (ssRNA)
RNA: GGGAGUUCUACAGUCCGACGAUCGAAAUCGGCACAGUCAGAACCCUAAUCUCCACAAAAACAUUCCCUUCACUUCAGUAGAUUAGUCUCAGAAUGGACACUACAAAUGCCAGCUCUCACCAGAUGGCCUACGUGUUUGAACUGCAACAGAGGAUUGAGCAUCA
B2: chr8:78602526:78602623:+|3pUTR|ENSG00000171033|msi1_unk|FALSE|overlapping (ssRNA)
RNA: GGGAGUUCUACAGUCCGACGAUCUUGUAUGUUGAUGAGUUGAUUAAGUCUAACAGAUUCAUCAAGACUCCAUUGCUUUAUUAUAGAGACAUUUGAAAAUAUCCAUUAAUGUGAAUAUCACCUGAAUUCAGUCUGUUUGGUGUCCAACAGAGGAUUGAGCAUCA
B3: chr3:138945594:138946722:-|CDS|ENSG00000183770|control|control|control (ssRNA)
RNA: GGGAGUUCUACAGUCCGACGAUCCCCGGCCGCCUCGUACGGGCCGUACACACGCGUGCAGAGCAUGGCGCUGCCCCCCGGCGUAGUGAACUCGUACAAUGGCCUGGGAGGCCCGCCGGCCGCACCCCCGCCUCCGCCGCACCCCAACAGAGGAUUGAGCAUCA
B4: chr16:56943551:56943652:+|3pUTR|ENSG00000051108|msi1|FALSE|unique (ssRNA)
RNA: GGGAGUUCUACAGUCCGACGAUCUGCAUGUCUAUGCUUGAGGAACUUUUCCAAAUGUGUGUGUCUGCAUGUGUGUUUGUACAUAGAAGUCAUAGAUGCAGAAGUGGUUCUGCUGGUACGAUUUGAUUCCUGUUGGAAUGUUUACAACAGAGGAUUGAGCAUCA
B5: chr8:58579689:58579790:+|CDS|ENSG00000137575|msi1|total|mutant (ssRNA)
RNA: GGGAGUUCUACAGUCCGACGAUCAGCACUGGACAUGUUGGUUUUAUCUUUAAAAAUGGAAAAAUAACAUCCACCGUGAAAGACCGCUCUGCAGCCAGAAAUGGUCUUCUCACGGAACAUAACAUCUGUGAAAUCAAUGGACAGCAACAGAGGAUUGAGCAUCA
B6: chr12:6238009:6238110:+|3pUTR|ENSG00000010278|msi1_unk|total|mutant (ssRNA)
RNA: GGGAGUUCUACAGUCCGACGAUCAUAAAAGCUGAAGUUACUUUAUGUUUGUCUUUUAAUGCUUCAUUCAAUAUUGACAUUUGCCGUUGAGCGGGGGGUUUGGUUUGCUUUGGUUUAUAUUUUUUCAGUUGUUUGUUUUUGCUUCAACAGAGGAUUGAGCAUCA
B7: chr14:94062441:94062542:-|CDS|ENSG00000089737|msi1|FALSE|unique (ssRNA)
RNA: GGGAGUUCUACAGUCCGACGAUCCCUCCAAGUAACACCGAAGCACCACCUGGAGAGACCAGAACUGAGGCCGGAGCUGAGACUAGAUCACCAGGCAAGGCUGAAGCUGAGUCUGAUGCAUUGCCUGACGAUACUGUAAUUGAGCAACAGAGGAUUGAGCAUCA
B8: chr7:88283957:88284065:-|CDS|ENSG00000127954|unk|FALSE|unique (ssRNA)
RNA: GGGAGUUCUACAGUCCGACGAUCCAGUGGUGCAGAAGUCUUGAGCUAUUCAGAAGCAGCCAAGAAGUCUGGCAUCAUAAUCAUAGCAAUCCACAGAGAGCAUUAUGAUUUUCUCACAGAAUUAACUGAGGUUCUCAAUGGAAACAACAGAGGAUUGAGCAUCA
B9: chr1:24839915:24840022:+|CDS|ENSG00000169504|unk|FALSE|bound_elsewhere (ssRNA)
RNA: GGGAGUUCUACAGUCCGACGAUCACCCUGCAGAAACUGGAUGAAUAUCUGAAUUCUCCUCUCCCUGAUGAAAUUGAUGAAAAUAGUAUGGAGGACAUAAAGUUUUCUACACGUAAAUUUCUGGAUGGCAAUGAAAUGACAUUACAACAGAGGAUUGAGCAUCA
B10: chr17:82614561:82616025:-|three_prime_utr|ENSG00000141580|control|control|control (ssRNA)
RNA: GGGAGUUCUACAGUCCGACGAUCCUACAAAUUCCUGUUCAACCCCAAGGGGGAGUGCAUCCGAGAUGUCUACGCGCAGUUUCUAGAGAUGACCGAUGACAAGCUGUGACUCCAGCUGGGGGCGCCACAGCACCCACCACCUGCCAACAGAGGAUUGAGCAUCA
B11: chr10:123166816:123166917:+|3pUTR|ENSG00000154473|unk|total|mutant (ssRNA)
RNA: GGGAGUUCUACAGUCCGACGAUCAAAAACUUAAAGGUAUAUCCGCAGGUCCGCCUUUGUUCUGUGGGAGAUCCAGGCCUUGUCCGAAGGACCAAGGCCAGAAUGCCCAGUUCCGCCUCCGCAUUCAAACCCUUCAUUGUUUUUCAACAGAGGAUUGAGCAUCA
B12: chr5:115137525:115137627:-|CDS|ENSG00000152503|unk|total|mutant (ssRNA)
RNA: GGGAGUUCUACAGUCCGACGAUCUUCCGCAGAAGAGGCUAUUCUUUGUUUUAUCUCCGUGUAAUGGAGAUACUGUUUUUUCUCCGUGUAAUGGAGAGAGGGCUAAAGAAGAAGCAAUUACACAUUUUGAAAAGCUCUUUGAAGCAACAGAGGAUUGAGCAUCA
B13: ENSG00000075856:stop:overlap|stop_codon|ENSG00000075856|stop_codon|NA|stop_codon (ssRNA)
RNA: GGGAGUUCUACAGUCCGACGAUCGCAGCGGGCAUCUUCCAGUCUUUCAGGUCCUCGGGUCCCCAUGUCCUGGCCCGCCUCCCUAGUCCUCGGCGGCGAUAAAGCCGCCAAGGCUGCAAACCCGCUUUUCGUGACAGUAGCUCCCAACAGAGGAUUGAGCAUCA
B14: chr12:52170242:52170446:-|3pUTR|ENSG00000167767|msi1|FALSE|unique (ssRNA)
RNA: GGGAGUUCUACAGUCCGACGAUCUGGCCCUCCCCUCCUUGGCAUUCAUGGGGGAGCCCAGGAACCCCCCACACCUAUGGGGUUAGAGCUCCUCCUUUCUUCUCACUCCUUCCCCUUCCUCCCUCCAUGCCCACUCCCCCUGCCCAACAGAGGAUUGAGCAUCA

These binders were tested against T1, UNK ZnF1-6 (called full-length) (assay: nsRBNS (natural sequence RNA bind-n-seq); RBNS binding buffer (assumed for nsRBNS): 25 mM Tris pH 7.5, 150 mM KCl, 3 mM MgCl2, 0.01% Triton X-100, 500 ug/ml BSA, 20 U/ml SUPERase-In, 4 C; UNK is unkempt and MSI1 is Musashi-1; names of the RNAs are library labels; protein concentration not given here; high values mean tight binding).
B1 was tested, and the binding signal was 0.981 enrichment R. With B2 the binding signal was 1.06 enrichment R. B3 showed a binding signal of 0.774 enrichment R. For B4, the binding signal was 0.257 enrichment R. With B5 the binding signal was 0.566 enrichment R. B6 showed a binding signal of 1.77 enrichment R. B7 was tested, and the binding signal was 0.576 enrichment R. Binder B8 has a binding signal of 0.402 enrichment R. Binder B9 has a binding signal of 0.33 enrichment R. Work on B10 yielded a binding signal of 0.928 enrichment R. With B11 the binding signal was 0.411 enrichment R. In the case of B12, the binding signal is reported as 0.327 enrichment R. With B13 the binding signal was 0.352 enrichment R. In the case of B14, the binding signal is reported as 1.03 enrichment R.

From paper PMC12136788
